Reference: article PMC9452587
No constants are given. Whether binding was seen depends on the method and setting. In cells and extracts the contact can be indirect. Some results given as binding are weak or reduced against the parent protein; the word gives no strength.

Sequences of proteins named here, by UniProt entry; tags and fusion partners are left off. A change or cut given only in a name is not applied to a line headed by its entry.
UniProt Q60680: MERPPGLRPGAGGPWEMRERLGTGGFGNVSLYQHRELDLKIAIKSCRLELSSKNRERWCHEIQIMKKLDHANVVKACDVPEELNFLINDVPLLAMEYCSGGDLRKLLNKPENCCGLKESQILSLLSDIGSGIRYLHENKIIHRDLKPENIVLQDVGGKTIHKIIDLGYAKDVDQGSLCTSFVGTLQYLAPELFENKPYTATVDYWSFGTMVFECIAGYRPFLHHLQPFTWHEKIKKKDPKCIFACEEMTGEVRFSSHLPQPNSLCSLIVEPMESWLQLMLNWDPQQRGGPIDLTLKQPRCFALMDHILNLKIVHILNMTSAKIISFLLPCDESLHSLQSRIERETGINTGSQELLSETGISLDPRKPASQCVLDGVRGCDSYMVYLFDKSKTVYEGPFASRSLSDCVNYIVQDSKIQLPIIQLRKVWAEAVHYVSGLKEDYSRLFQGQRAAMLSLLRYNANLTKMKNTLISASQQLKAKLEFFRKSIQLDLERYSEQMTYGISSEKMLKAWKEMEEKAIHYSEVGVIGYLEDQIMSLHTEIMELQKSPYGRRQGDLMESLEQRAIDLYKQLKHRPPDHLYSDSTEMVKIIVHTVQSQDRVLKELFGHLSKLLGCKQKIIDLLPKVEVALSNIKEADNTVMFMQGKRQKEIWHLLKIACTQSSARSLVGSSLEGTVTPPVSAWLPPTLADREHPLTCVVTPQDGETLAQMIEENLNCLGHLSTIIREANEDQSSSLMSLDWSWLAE

Biological target: T1, TNFR1 (mouse (endogenous in MEFs)) (UniProt P25118)
T1 sequence: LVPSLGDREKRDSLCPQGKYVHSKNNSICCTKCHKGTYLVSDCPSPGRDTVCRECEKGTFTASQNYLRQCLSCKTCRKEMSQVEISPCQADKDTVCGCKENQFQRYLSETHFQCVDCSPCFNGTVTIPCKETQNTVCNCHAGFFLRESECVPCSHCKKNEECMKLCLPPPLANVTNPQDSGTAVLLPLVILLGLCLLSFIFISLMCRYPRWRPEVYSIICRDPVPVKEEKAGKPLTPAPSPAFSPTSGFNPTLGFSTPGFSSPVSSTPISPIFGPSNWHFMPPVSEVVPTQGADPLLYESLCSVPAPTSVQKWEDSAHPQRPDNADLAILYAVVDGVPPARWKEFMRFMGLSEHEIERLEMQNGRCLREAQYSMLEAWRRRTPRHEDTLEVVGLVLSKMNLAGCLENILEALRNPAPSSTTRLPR
Experiment: co-IP; MEFs (WT, PP6 knockout and reconstituted) treated with TNFα 50 ng/ml for indicated times, NP-40 lysis, anti-TNFR1 antibody overnight at 4 °C, Protein G agarose, western blot

## IKKα/β (from UniProt Q60680 1-745; O88351 1-757) (complex)
  binding: binds
